Assay results taken from the RNAGym collection of RNA variant scans (doi:10.7554/elife.90254).
Read counts are not given, so values of variants with three or more changes are uncertain.

B1: LINE1-full (parent)
chain: UACGUAGGUGGUUUUCCCCUGAUAGUGCUAAGGGGGCCUGGAAGUUUGGACUGGGCAGAGCUCAACACAGCGUGGCAAAGUGGCUGUGGCUAGACUGCCUCUCUGGAUUCCUCGUCACUCAGCAGGGCAUCUCUGAGAGAAAUGCC

Variants of: B1
Assay: self-cleavage, relative activity (ratio to wild type); higher = more cleavage; in vitro, sequencing; the parent is a self-cleaving ribozyme

Variant | self-cleavage
U14C U73C U104A | 0.48
U15C U46C U130C | 1.12
U15C A22U A24G A78U U102C A136G | 1.53
U15A A67C U87C | 0.25
U15C U45C U96C | 0.7
U15C U47A A141G | 1.42
U15C U26A U91A | 0.71
U15C A69C U102A | 0.12
U14C U109A U143C | 0.84
U14C U100C U119C | 1.84
U15C A31G A78U A92G U115C A136U A142G | 0.46
U15A U47C C128U U134G | 0.71
U14C U102C U143C C145U | 1.08
U15C C19A A117G U119A | 0
U15C A77G U104A | 2.17
U15A A59G C99A G126A | 0.1
U15C G60C U73C U91A | 0.11
U15C A77G U102C A129U U134A U143A | 1.67
U15C U26A C113A A124G | 0.85
U15A C37U A43G | 0.7
U15A U47G A67G | 0.78

Variant | self-cleavage
U14C U85A U102A U108C | 0
U15C A121U A140G | 2.17
U15A A67U U108C U134C A140G | 0.26
U15C G70A A117G A141U | 0.13
U15C G35U A140U | 0.76
U15C A57G A140G | 0.83
U14C U73A U87C U132C | 0
U15A A22G U29A G125U G126A | 0.53
U15C A22C U47A U96C | 0.09
U15C U39A A65G U85C C90A A136G | 0.09
U15C U45C U112A | 1.15
U14C U47A A136C A141U | 1.07
U15C U62C U104A | 0.1
U15C G83A A124C A138G | 1.62
U15C U26A A42G | 0.99
U14G A22G A50G A59G G75A U143A | 0.24
U14C U47C G72A | 1.55
U15A A42G U130C A138G | 1.02
U14C U46A U81C A92U A94U | 0.52
U15A A64G G72A | 0.14
U15C A22U A142G | 1.12

Variant | self-cleavage
U15C U73C A140G | 1.92
U14C U81C A140G | 1.23
U14C U87A U96C A140G | 0.07
U15C U20A A24G U85A | 0.3
U15C A57U A107G | 0.13
U14C U115C A117U | 2.23
U15C C19U C37G A141G | 1.65
U15C A30G U47A | 0.8
U15C U26C U46A U104C A141G | 2.76
U14C U91C U102A A117U | 0
U15A U47C U104C | 0.79
U15C G72A G126A | 1.77
U15C U29C U52A U91A | 0.83
U15C A22G A94G | 0.18
U14C U62A A129U | 0.11
U14C U104A A121U A138G | 2.55
U15C A57U A64G | 0.11
U15C A30G U108C | 0.54
U15C A24U A43U | 1.54
U15A A42G U52G A67C C68U | 0
U15A A94G A140G | 0.62

Variant | self-cleavage
U15A U91C U143A | 0.69
U15A G58A U134C A136U | 0.08
U15C A77U A78G U112C U119C C133U | 0.65
U15A A22G U47C C95U G135A | 0.58
U15C A22G U81A U130A A142G | 1.79
U15C A94G U104G | 0.5
U15C A30U U109C A121C A142G | 1.23
U15C U39C U104A | 0.71
U14C U91A A117U | 1.69
U15C U62A A92G A124U | 0.07
U15C U47C U96C | 0
U15A U26C A141G | 0.92
U15A A43G A107G U134C | 1.41
U15C U46C A117U A142G | 1.98
U15A A22G U46C | 0.38
U15C A22G G49U A79G | 0.8
U15A U23C U108C A129G U132C | 0
U15C A77U U91C | 0.95
U14C U87C U109C | 0
U15A U73C U91A U108C | 0
U15A A22G A67U G122A U134C A140G | 0.16
